This assay has as its target LRRK2(G2019S mutation, GST-LRRK2(amino acids 970-2527)) (Homo sapiens (Human), UniProt Q5S007, G2019S). The assay is described as follows: LRRK2 Km ATP LanthaScreen Assay. The note with it: read-out: LRRK2 IC50; Km ATP LanthaScreen Assay, mean IC50.

Regarding `CCCN1CCN(c2cc(-c3n[nH]c4ccc(OC5(C)CC5)cc34)ncn2)CC1` [Example 42], the IC50 came out at 1.41 nM. As for `CC1(Oc2ccc3[nH]nc(-c4cc(N5CCN(CCO)CC5)ncn4)c3c2)CC1` [Example 43], the figure is 1.2 nM; as for `CC1(Oc2ccc3[nH]nc(-c4cc(N5CCCCC5)ncn4)c3c2)CC1` [Example 44], 3.1 nM. As for `CC1(Oc2ccc3[nH]nc(-c4cc(N5CCC5)ncn4)c3c2)CC1` [Example 45], the figure is 3.9 nM; as for `CC(=O)N1CCN(c2cc(-c3n[nH]c4ccc(OC5(C)CC5)cc34)ncn2)CC1` [Example 48], 1.2 nM.

As for `CC1(Oc2ccc3[nH]nc(-c4cc(N5CCN(C(=O)C6CCCO6)CC5)ncn4)c3c2)CC1` (stereo not drawn) [Example 49], the IC50 worked out at 3 nM. As for `CC1(Oc2ccc3[nH]nc(-c4cc(N5CCN(c6ncccn6)CC5)ncn4)c3c2)CC1` [Example 50], the figure is 4.3 nM; as for `COCCN1CCN(c2cc(-c3n[nH]c4ccc(OC5(C)CC5)cc34)ncn2)CC1` [Example 52], 1.5 nM; as for `CN(C)[C@H]1CN(c2cc(-c3n[nH]c4ccc(OC5(C)CC5)cc34)ncn2)C[C@@H]1O` [Example 53], 2.7 nM.

As to `CO[C@H]1CN(c2cc(-c3n[nH]c4ccc(OC5(C)CC5)cc34)ncn2)C[C@@H]1O` [Example 54], the IC50 was 4.6 nM. On to `CC1(Oc2ccc3[nH]nc(-c4cc(N5CC(n6cccn6)C5)ncn4)c3c2)CC1` [Example 58], for which the IC50 was found to be 5 nM. With `CC1(Oc2ccc3[nH]nc(-c4cc(N5CC(O)(C(F)(F)F)C5)ncn4)c3c2)CC1` [Example 59] the figure was 3.3 nM; with `CC1(Oc2ccc3[nH]nc(-c4cc(N5CCc6oc(C7CC7)nc6C5)ncn4)c3c2)CC1` [Example 60], 7.7 nM; with `Cn1cc(N2CCN(c3cc(-c4n[nH]c5ccc(OC6(C)CC6)cc45)ncn3)CC2)cn1` [Example 61], 1.4 nM.

In the case of `CC1(Oc2ccc3[nH]nc(-c4cc(N5CCC(F)(F)CC5)ncn4)c3c2)CC1` [Example 62], the IC50 is 5.5 nM. Consider `CC1(Oc2ccc3[nH]nc(-c4cc(N5CC(O)C5)ncn4)c3c2)CC1` [Example 63], for which the IC50 is 2 nM. With `C[C@@H](CO)Nc1cc(-c2n[nH]c3ccc(OC4(C)CC4)cc23)ncn1` [Example 64] the figure was 13.8 nM; with `CC1(Oc2ccc3[nH]nc(-c4cc(N5CCN(c6nnc(C7CC7)o6)CC5)ncn4)c3c2)CC1` [Example 65], 4.1 nM; with `Cc1noc(C2CN(c3cc(-c4n[nH]c5ccc(OC6(C)CC6)cc45)ncn3)C2)n1` [Example 66], 3 nM. With `CC1(Oc2ccc3[nH]nc(-c4cc(N5CC(n6cnnc6)C5)ncn4)c3c2)CC1` [Example 67] the figure was 3.3 nM; with `CC1(Oc2ccc3[nH]nc(-c4cc(N5CCN(c6ccncn6)CC5)ncn4)c3c2)CC1` [Example 68], 3 nM. For the compound `CC1(Oc2ccc3[nH]nc(-c4cc(N5CC[C@@H](F)C5)ncn4)c3c2)CC1` [Example 69], the IC50 was determined as 3.3 nM. For the compound `CC1(Oc2ccc3[nH]nc(-c4cc(N5CC[C@H](F)C5)ncn4)c3c2)CC1` [Example 70], the IC50 was 2.7 nM. As for `CC1(Oc2ccc3[nH]nc(-c4cc(N5CCC[C@@H](O)C5)ncn4)c3c2)CC1` [Example 71], the figure is 3.5 nM; as for `CCN(CC)c1cc(-c2n[nH]c3ccc(OC4(C)CC4)cc23)ncn1` [Example 72], 18.3 nM. With `CC1(Oc2ccc3[nH]nc(-c4cc(N5CCN6CCCC6C5)ncn4)c3c2)CC1` (stereo not drawn) [Example 73] the figure was 1.9 nM; with `COC1CCCN(c2cc(-c3n[nH]c4ccc(OC5(C)CC5)cc34)ncn2)C1` (stereo not drawn) [Example 74], 5.7 nM; with `COC(=O)N1CCN(c2cc(-c3n[nH]c4ccc(OC5(C)CC5)cc34)ncn2)CC1` [Example 76], 2.4 nM. Take `CC1(Oc2ccc3[nH]nc(-c4cc(N5CC(N6CCOCC6)C5)ncn4)c3c2)CC1` [Example 77]: the IC50 was determined as 6.4 nM. With `CC1(Oc2ccc3[nH]nc(-c4cc(N5CCC(n6ccnc6)C5)ncn4)c3c2)CC1` (stereo not drawn) [Example 78] the figure was 2.6 nM; with `CC1(Oc2ccc3[nH]nc(-c4cc(N5CCC(O)(C(F)(F)F)CC5)ncn4)c3c2)CC1` [Example 79], 2.9 nM; with `CC1(Oc2ccc3[nH]nc(-c4cc(N5CCC(n6cccn6)CC5)ncn4)c3c2)CC1` [Example 80], 5 nM.

In the case of `CC1(Oc2ccc3[nH]nc(-c4cc(N5CCN(Cc6ccncc6)CC5)ncn4)c3c2)CC1` [Example 81], the IC50 was 2.1 nM.

Consider `CC1(Oc2ccc3[nH]nc(-c4cc(N5C[C@@H]6C[C@H]5CO6)ncn4)c3c2)CC1` [Example 82], for which the IC50 was 6.3 nM. With `CC1(Oc2ccc3[nH]nc(-c4cc(N5CCn6nc(C7CC7)nc6C5)ncn4)c3c2)CC1` [Example 83] the figure was 4.2 nM. Regarding `CC1(Oc2ccc3[nH]nc(-c4cc(N5CCN6CCC5CC6)ncn4)c3c2)CC1` [Example 84], the IC50 was 8.2 nM. As for `C[C@H]1CN(c2cc(-c3n[nH]c4ccc(OC5(C)CC5)cc34)ncn2)CCO1` [Example 85], the IC50 came to 5.8 nM. As for `Cc1nc2c(o1)CCN(c1cc(-c3n[nH]c4ccc(OC5(C)CC5)cc34)ncn1)C2` [Example 86], the figure is 3.1 nM. With `CC1(Oc2ccc3[nH]nc(-c4cc(N5CCC(F)(CO)CC5)ncn4)c3c2)CC1` [Example 87] the figure was 1.9 nM; with `CC1(Oc2ccc3[nH]nc(-c4cc(N5CCn6ncnc6C5)ncn4)c3c2)CC1` [Example 88], 3.9 nM; with `COCCNc1cc(-c2n[nH]c3ccc(OC4(C)CC4)cc23)ncn1` [Example 89], 4.2 nM. With `CC1(Oc2ccc3[nH]nc(-c4cc(NCCO)ncn4)c3c2)CC1` [Example 90] the figure was 6.3 nM. `CC1(Oc2ccc3[nH]nc(-c4cc(N5C[C@@H]6C[C@H]5CN6Cc5ccccc5)ncn4)c3c2)CC1` [Example 91]: the IC50 was 5.8 nM. Regarding `CC1(Oc2ccc3[nH]nc(-c4cc(N5CCN(CC6CC6)C(=O)C5)ncn4)c3c2)CC1` [Example 92], the IC50 worked out at 1.5 nM. On to `CC1(Oc2ccc3[nH]nc(-c4cc(N5CCN(C(=O)CO)CC5)ncn4)c3c2)CC1` [Example 93], for which the IC50 is 1.3 nM. For `CC(O)C(=O)N1CCN(c2cc(-c3n[nH]c4ccc(OC5(C)CC5)cc34)ncn2)CC1` (stereo not drawn) [Example 94], the IC50 was determined as 1.6 nM. With `CC1(Oc2ccc3[nH]nc(-c4cc(N5CCO[C@@H](c6ccccc6)C5)ncn4)c3c2)CC1` [Example 95] the figure was 6 nM; with `COCC(=O)N1CCN(c2cc(-c3n[nH]c4ccc(OC5(C)CC5)cc34)ncn2)CC1` [Example 96], 2 nM; with `CC1(Oc2ccc3[nH]nc(-c4cc(N5CCN(C(=O)C(C)(C)O)CC5)ncn4)c3c2)CC1` [Example 97], 1.1 nM. With `CC1(Oc2ccc3[nH]nc(-c4cc(N5CCOC6(CCCC6)C5)ncn4)c3c2)CC1` [Example 98] the figure was 1.6 nM; with `CC1(Oc2ccc3[nH]nc(-c4cc(N5CCOC(C(F)(F)F)C5)ncn4)c3c2)CC1` (stereo not drawn) [Example 99], 3.2 nM; with `CC1(Oc2ccc3[nH]nc(-c4cc(N5CCN(C6CCS(=O)(=O)C6)CC5)ncn4)c3c2)CC1` (stereo not drawn) [Example 100], 0.8 nM.

For `CC1(Oc2ccc3[nH]nc(-c4cc(N5CCOC(COc6ccccc6)C5)ncn4)c3c2)CC1` (stereo not drawn) [Example 101], the IC50 worked out at 2.8 nM. As for `CC1(Oc2ccc3[nH]nc(-c4cc(N5Cc6nnc(C(F)(F)F)n6C(C)(C)C5)ncn4)c3c2)CC1` [Example 102], the figure is 5.5 nM; as for `CC1(Oc2ccc3[nH]nc(-c4cc(N5C6CCC5COC6)ncn4)c3c2)CC1` [Example 103], 2.2 nM.

Turning to `CC1(Oc2ccc3[nH]nc(-c4cc(N5CCN(C6CCCCC6)C(=O)C5)ncn4)c3c2)CC1` [Example 104], the IC50 was 1.2 nM. With `COCC1CN(c2cc(-c3n[nH]c4ccc(OC5(C)CC5)cc34)ncn2)CCO1` (stereo not drawn) [Example 105] the figure was 0.8 nM.

Consider `CC(C)CC1COCCN1c1cc(-c2n[nH]c3ccc(OC4(C)CC4)cc23)ncn1` (stereo not drawn) [Example 106], for which the IC50 worked out at 6.6 nM. Regarding `C[C@@H]1COC[C@@H](C)N1c1cc(-c2n[nH]c3ccc(OC4(C)CC4)cc23)ncn1` [Example 107], the IC50 worked out at 39.1 nM. With `CN1C[C@@H]2C[C@H]1CN2c1cc(-c2n[nH]c3ccc(OC4(C)CC4)cc23)ncn1` [Example 108] the figure was 10.3 nM; with `CC1(C)CN(c2cc(-c3n[nH]c4ccc(OC5(C)CC5)cc34)ncn2)CCO1` [Example 109], 1.8 nM; with `CC1C2CCCN2CCN1c1cc(-c2n[nH]c3ccc(OC4(C)CC4)cc23)ncn1` (stereo not drawn) [Example 110], 2.8 nM. As for `CC1(Oc2ccc3[nH]nc(-c4cc(N5CCN6C(=O)OCC6C5)ncn4)c3c2)CC1` (stereo not drawn) [Example 111], the figure is 1.6 nM.

Turning to `CC1(C)CN(c2cc(-c3n[nH]c4ccc(OC5(C)CC5)cc34)ncn2)CC(C)(C)O1` [Example 112], the IC50 stood at 6.8 nM. Take `CC1(Oc2ccc3[nH]nc(-c4cc(N5CCC6(CC5)CNC(=O)CO6)ncn4)c3c2)CC1` [Example 113]: the IC50 was 0.9 nM. As for `CCOC(=O)N1CCN(c2cc(-c3n[nH]c4ccc(OC5(C)CC5)cc34)ncn2)CC1` [Example 114], the figure is 2.1 nM. Take `CC1(Oc2ccc3[nH]nc(-c4cc(N5CCN(CC6CCCO6)CC5)ncn4)c3c2)CC1` (stereo not drawn) [Example 115]: the IC50 worked out at 0.7 nM. With `C[C@@H]1COCCN1c1cc(-c2n[nH]c3ccc(OC4(C)CC4)cc23)ncn1` [Example 116] the figure was 3.3 nM; with `C[C@H]1COCCN1c1cc(-c2n[nH]c3ccc(OC4(C)CC4)cc23)ncn1` [Example 117], 2.2 nM; with `CC1(Oc2ccc3[nH]nc(-c4cc(N5CCN(Cc6ccco6)CC5)ncn4)c3c2)CC1` [Example 118], 1.7 nM. As for `CC1(Oc2ccc3[nH]nc(-c4cc(N5CCN(Cc6cocn6)CC5)ncn4)c3c2)CC1` [Example 119], the figure is 1.9 nM; as for `CC1(Oc2ccc3[nH]nc(-c4cc(N5CCN(Cc6ncco6)CC5)ncn4)c3c2)CC1` [Example 120], 1.2 nM.

As a reminder, the IC50 is the point on the concentration scale where inhibition reaches its midpoint.

The record behind these values is US9493440B2, “Compounds inhibiting leucine-rich repeat kinase enzyme activity” (Merck Sharp & Dohme Corp., priority 2013, dated 2016).
